According to paper PMC4336329 (PLoS ONE, 2015):
The campaign covered roughly 310,000 compounds. About 2,200 (0.71%) showed an effect of 50% or more. The effect is printed as a negative number. The list shows a part of the results.

target: human ether-à-go-go-related gene (hERG) potassium channel (human, UniProt Q12809); experiment: primary screen, population patch clamp on CHO cells stably expressing hERG
Sequence (Q12809 whole entry, looked up): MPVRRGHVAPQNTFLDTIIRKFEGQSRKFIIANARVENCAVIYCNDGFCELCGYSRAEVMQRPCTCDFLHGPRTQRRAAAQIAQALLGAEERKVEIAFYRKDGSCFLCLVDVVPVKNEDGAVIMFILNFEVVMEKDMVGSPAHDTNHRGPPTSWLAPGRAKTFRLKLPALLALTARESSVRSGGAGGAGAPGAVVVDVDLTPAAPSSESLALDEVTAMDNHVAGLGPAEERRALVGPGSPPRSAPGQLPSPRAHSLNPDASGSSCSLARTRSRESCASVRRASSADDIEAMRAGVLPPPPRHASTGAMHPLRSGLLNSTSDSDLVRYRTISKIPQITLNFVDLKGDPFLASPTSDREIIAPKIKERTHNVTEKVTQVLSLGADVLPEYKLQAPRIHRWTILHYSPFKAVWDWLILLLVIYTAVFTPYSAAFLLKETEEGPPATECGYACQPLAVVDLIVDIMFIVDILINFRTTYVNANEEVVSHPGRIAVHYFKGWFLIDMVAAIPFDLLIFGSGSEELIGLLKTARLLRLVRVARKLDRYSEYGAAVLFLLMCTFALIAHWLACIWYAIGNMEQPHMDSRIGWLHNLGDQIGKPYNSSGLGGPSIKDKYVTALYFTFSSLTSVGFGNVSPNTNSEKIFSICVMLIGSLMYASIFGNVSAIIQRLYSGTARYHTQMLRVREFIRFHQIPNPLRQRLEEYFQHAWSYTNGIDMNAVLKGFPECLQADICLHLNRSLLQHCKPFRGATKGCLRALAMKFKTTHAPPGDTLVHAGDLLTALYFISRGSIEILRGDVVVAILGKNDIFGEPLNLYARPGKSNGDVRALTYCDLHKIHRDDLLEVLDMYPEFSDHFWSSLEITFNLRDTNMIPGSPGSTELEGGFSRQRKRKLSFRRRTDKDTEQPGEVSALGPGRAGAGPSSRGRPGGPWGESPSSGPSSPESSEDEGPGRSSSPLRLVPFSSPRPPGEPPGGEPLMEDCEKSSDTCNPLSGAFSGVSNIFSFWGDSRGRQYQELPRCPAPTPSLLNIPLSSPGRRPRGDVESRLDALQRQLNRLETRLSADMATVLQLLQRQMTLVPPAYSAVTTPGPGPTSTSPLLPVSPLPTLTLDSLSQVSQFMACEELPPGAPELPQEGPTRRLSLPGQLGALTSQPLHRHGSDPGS

SMILES | hERG current change (%, negative = inhibition) at 1uM [%]
Cc1ccc(NC(=O)CN2C(=O)N/C(=C/c3ccc(C)o3)C2=O)cc1 | 7.31
COc1cc(-c2nn3c(-c4cccnc4)nnc3s2)cc(OC)c1OC | 3.07
COc1ccc2cc(C(=O)C3CCCN(C(=O)c4cc5nc(C)cc(C)n5n4)C3)ccc2c1 (stereo not shown) | -5.02
Cc1ccc(NC(=O)COc2ncnc3cc([N+](=O)[O-])ccc23)cc1S(=O)(=O)N1CCOCC1 | 3
Cc1ccc(N2C(=O)C3C(C(=O)c4ccccc4)=NN(c4ccccc4)C3C2=O)cc1 (stereo not shown) | 15.6
CCOP(=O)(OCC)/C(C#N)=C/c1ccc([N+](=O)[O-])cc1 | -4.07
CCN(CC)C(=O)CN(c1cc(Cl)ccc1OC)S(C)(=O)=O | 8.33
CCc1nnc(NC(=O)NC(C)(C)C)s1 | 11.4
COc1ccccc1-n1c(SCC(=O)Nc2cccc3ccccc23)nc(O)cc1=O | 1.29
COc1ccc(C=O)cc1Cn1c(C)cc(C)c(C#N)c1=O | 3.93
CC(c1ccccc1)N1C(=O)CC(Sc2ncccc2C(=O)O)C1=O (stereo not shown) | 14.4
CN(CCOc1ccccc1)C(=O)c1cc([N+](=O)[O-])ccc1N1CCOCC1 | -14.1
CCOC(=O)c1c(NC(=O)c2nn(CC)cc2Br)c(C#N)cn1-c1ccccc1 | 8.35
CCCC(O)(c1ccc(OC)cc1)C(CN1CCOCC1)c1ccccc1 (stereo not shown) | 10.9
CNC(=O)CN1C(=O)CSc2nc(C)cc(C)c21 | 2.95
C=CCn1c(-c2ccc(S(=O)(=O)N3CCOCC3)cc2)csc1=Nc1ccccc1 | 6.04
O=C(CSc1n[nH]c(-c2ccccc2)n1)NC(=O)NCc1ccco1 | -4.3
CNC(=S)N(CCc1c(C)[nH]c2ccc(OC)cc12)Cc1ccco1 | 9.8
N#Cc1c(-c2ccccc2)ccn(Cc2cccc(Cl)c2)c1=O | 13.2
CC1CCCCN1Cc1ccc(Cl)nc1 (stereo not shown) | 8.91
Cc1ccc(C=NCc2ccncc2)c(O)c1 | 5.84
CC(C)[C@H](NS(=O)(=O)c1cccc(Cl)c1)C(=O)OCC(=O)NC(=O)CN1CCCC1=O | 9.45

SMILES | hERG current change (%, negative = inhibition) at 1uM [%]
Cc1ccc(-n2nnnc2CNC(=O)C2CC(=O)N(c3ccccc3)C2)cc1C (stereo not shown) | 20.6
CC1(OC(=O)CCc2ccccc2)C(=O)C=C2C=C(c3ccc(C#N)cc3)N(CCc3ccccn3)C=C2C1=O (stereo not shown) | -4.89
CC(=O)c1ccc(NC2OC(CO)C(O)C(O)C2O)cc1 (stereo not shown) | -4.15
Cn1ccs/c1=N\C(=O)Nc1ccccc1 | 9.82
COc1ccc(C(C#N)N2N=C(c3ccccc3)CC2c2ccccc2)cc1OC (stereo not shown) | 10.6
CC(/C=N/NC(=O)c1cc(C(C)C)[nH]n1)=C\c1ccccc1 | 7.12
Cc1onc(-c2ccccc2Cl)c1C(N)=O | 7.55
CN(Cc1ccccc1)C(=O)c1ccco1 | 0.0237
O=C1ON=C(c2ccccc2)/C1=C/c1ccc(-c2ccccc2[N+](=O)[O-])o1 | 15
CCC(C)(C)n1nnnc1C(c1ccc(Cl)cc1)N1CCN(C)CC1.Cl (stereo not shown) | 9.61
Cc1cccc(N(CC(=O)NC2CCCC2)C(=O)CCC(=O)Nc2ccccn2)c1 | 11
Cc1ccc(C2Nc3ccccc3-c3nc4ccccc4n32)o1 (stereo not shown) | -2.88
Cc1ncc2c(n1)-c1cc(F)ccc1SC2 | 6.89
COc1ccc(C)cc1NC(=O)CSc1nc2ccccc2nc1N1CCCCC1 | 16.7
CC(C)(C)C(=O)OC/C(N)=N/OC(=O)c1ccc(Cl)c(Cl)c1 | 7.27
Cc1c(C(=O)N2CC(C)OC(C)C2)oc2ccccc12 (stereo not shown) | -7.52
Cl.O=S(=O)(NCC(c1ccco1)N1CCCCC1)c1ccccc1C(F)(F)F (stereo not shown) | 11.3
COC(C/C=C\[C@H](O)[C@@H](C)OCc1ccccc1)OC | 4.68
CCC1(c2ccc(N)cc2)CCC(=O)NC1=O (stereo not shown) | 12
CCOc1ccc(CN2CCN(S(=O)(=O)c3ccc(NC(C)=O)cc3)CC2)cc1.O=C(O)C(=O)O | -14.8
Cc1cccn2c(=O)c3cc(C#N)c(=NC(=O)c4ccncc4)n(CCCOC(C)C)c3nc12 | -89.7
COc1ccc(NC(=O)C2CCCN(S(=O)(=O)c3cnc[nH]3)C2)cc1 (stereo not shown) | -0.603

SMILES | hERG current change (%, negative = inhibition) at 1uM [%]
Cc1cc(C)c2oc(C(=O)Nc3ccc(S(=O)(=O)N4CCC(C)CC4)cc3)cc(=O)c2c1 | -2.86
COC(=O)Cc1csc(Nc2c(C)n(C)n(-c3ccccc3)c2=O)n1 | 11.8
COc1ccc(-n2c(C)n[nH]c2=O)cc1OC | 16
CCCc1cc(=O)oc2c3c(cc(OCC(=O)N4CCC[C@H]4C(=O)O)c12)OC(C)(C)CC3 | 7.91
O=C(CSc1nnc(-c2ccc(S(=O)(=O)N3CCCC3)cc2)o1)NCC1CCCO1 (stereo not shown) | 11.2
CCN(CC)CCNC(=O)c1cc(S(=O)(=O)N2CCc3ccccc32)cn1C | -40.8
O=C(Cn1cnc2scc(-c3ccc(Br)cc3)c2c1=O)N1CCOCC1 | -5.12
CCc1nnc(NC(=O)C(NS(=O)(=O)c2ccc3c(c2)OCCO3)C(C)C)s1 (stereo not shown) | -2.49
COc1cc(C(=O)Nc2nnc(C)s2)c([N+](=O)[O-])cc1OC | 9.02
Cc1ccccc1-n1c(C)n[nH]c1=S | 8.99
Cc1cccc(OCC(=O)NS(=O)(=O)c2ccc(Br)cc2)c1 | 10.2
COc1cccc(CC(C(=O)Nc2cc(C)ccc2C)c2nn[nH]n2)c1OC (stereo not shown) | -4.38
CN1c2ccccc2-c2nc3ccccc3n2C1c1ccncc1 (stereo not shown) | 0.187
CCc1nnc(NC(=O)CCNC(=O)c2ccccc2Cl)s1 | 2.76
CCOC(=O)c1c(NC(=O)CSc2nnnn2-c2ccccc2)sc2c1CCC(C)C2 (stereo not shown) | -3.15
CCOCCCNc1c(CC)c(C)c(C#N)c2nc3ccccc3n12 | -7.38
Cc1csc(SCC(=O)Nc2nc3ccccc3s2)n1 | 7.64
CCCCNC(=O)O[C@H]1C[C@@H]2CCN3C(=O)CCC[C@H]([C@H]1CC)[C@H]23 | 0.582
Cc1ccc(NC(=O)Cn2nc(C(=O)O)c3ccccc3c2=O)c([N+](=O)[O-])c1 | 12.3
CCOc1cc(CNn2cnnc2)cc(Br)c1OCC(=O)NC(C)(C)C | 14.4
O=C1CN(C(=O)COC(=O)c2cccc(OCc3ccccc3)c2)c2ccccc2N1 | 0.999
O=S(=O)(c1cnc(Cl)c(Br)c1)N1CCN(c2ncccn2)CC1 | 11.5

SMILES | hERG current change (%, negative = inhibition) at 1uM [%]
COc1ccccc1OCCn1cc(/C=N/n2cnnc2)c2ccccc21 | 11.6
O=C(c1ccc2c(c1)OCO2)C1CCCN(Cc2cn[nH]c2-c2ccccc2)C1 (stereo not shown) | -67.3
CCCC1(C)Nc2ccccc2-c2nc3ccccc3n21 (stereo not shown) | 1.59
Cc1ccc(-n2nnnc2SCC(=O)c2c(N)n(CC(C)C)c(=O)n(C)c2=O)cc1 | -31.8
Cc1ccc(-c2cc(C(=O)O)c3cc(Br)ccc3n2)s1 | 10.4
Cc1ccc2nc(-c3cccnc3SCC(=O)N3c4ccccc4CC3C)[nH]c2c1 (stereo not shown) | 12
CSc1nccc(-c2sc(SC)c(C#N)c2-c2ccccc2)n1 | 14.5
CC1CCC(NC(=O)CCNC(=O)c2ccccc2)CC1 (stereo not shown) | 10.4
CCCCN(CC)C(=O)Cn1nc(Cc2ccncc2)c2ccccc2c1=O | 0.392
O=[N+]([O-])c1ccc(N2CCC(=NOCc3ccc(Cl)cc3)CC2)cc1 | -13.9
Cc1nn(CC(=O)NCCC2=CCCCC2)c(C)c1[N+](=O)[O-] | 11.5
O=C(Cc1ccc(F)cc1)N1CCOCC1 | 15.3
CCCN(CCC)C(=O)Cn1c(=O)n(CCCCC(=O)NCc2ccco2)c(=O)c2ccccc21 | -1.34
CCc1nnc(NC(=O)CCNC(=O)c2ccco2)s1 | 9.02
COC(=O)COc1cc(OCC(=O)OC)c2c(-c3ccccc3)cc(=O)oc2c1 | 7.12
COc1ccc(NC(=O)CC(c2ccc(F)cc2)c2ccc(OC)cc2)cc1 (stereo not shown) | 16.7
Cc1nnc2n(C)c(=O)c3c4c(sc3n12)COC(C)(C)C4 | 8.77
Cc1ccc(N2CCN(S(=O)(=O)c3ccc(F)c(C)c3)CC2)c(C)c1 | 4.57
O=C(CSc1nc(O)c(Cc2ccccc2)c(=O)n1-c1ccccc1)N1CCOCC1 | -2.88
CC1Sc2ccc(S(=O)(=O)CCC(=O)N3CCN(c4cccc(Cl)c4)CC3)cc2NC1=O (stereo not shown) | 11.2
CCOC(=O)CSc1nc(N)c(C#N)cc1C#N | -4.41
CNC(=O)CN(C)S(=O)(=O)c1ccc(F)cc1 | -1.73
